Results as given in the BET-seq Pho4 binding data (Le et al. 2018).
This is one part of the list. These are noisy estimates, calculated here from bound and input reads.

biological target: T1, Pho4 (S. cerevisiae) (UniProt P07270); test: relative binding free energy (BET-seq); higher = weaker binding; details: reference: library average
T1 sequence: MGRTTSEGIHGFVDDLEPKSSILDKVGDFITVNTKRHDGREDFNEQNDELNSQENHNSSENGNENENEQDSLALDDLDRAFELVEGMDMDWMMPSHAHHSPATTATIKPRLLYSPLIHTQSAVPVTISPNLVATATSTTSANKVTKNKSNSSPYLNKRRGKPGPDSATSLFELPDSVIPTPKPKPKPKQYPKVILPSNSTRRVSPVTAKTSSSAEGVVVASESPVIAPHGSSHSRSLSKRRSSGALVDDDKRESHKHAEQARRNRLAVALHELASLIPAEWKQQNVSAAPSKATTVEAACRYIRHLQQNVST

Sequence | relative binding free energy [kcal/mol]
TTCGGCACGTGCTTTT | -0.15
TCCTTCACGTGTAGGG | 0.29
CCTGGCACGTGCGGGG | -0.22
GTAGGCACGTGGGTCT | -0.18
TATATCACGTGTGTGG | 0.23
ACTTTCACGTGGGGGC | 0.16
TGCTTCACGTGGTGTG | 0.08
ATGAACACGTGGTGCG | -0.02
GTTTACACGTGGGTCC | 0.04
GTAGTCACGTGGGGGG | 0.06
TGGGCCACGTGCCGGG | -0.19
ATATGCACGTGTTTGT | -0.02
TTGGGCACGTGTGAGT | 0.02
TTGATCACGTGATTGG | 0.25
TGTGGCACGTGATCGT | -0.15
TCTTACACGTGGAGGG | 0.1
TAGGGCACGTGTTTCG | -0.2
TGTTTCACGTGCCGGT | 0.27
GATGTCACGTGACGTT | 0.24
TGGGGCACGTGGATAC | -0.13
TGGATCACGTGATCGT | 0.26
AGTTGCACGTGCGGAG | 0
GGGAACACGTGGTGCG | -0.04

Sequence | relative binding free energy [kcal/mol]
TAGAACACGTGGAGGT | -0.01
TGACTCACGTGGTCGG | 0.12
GTTGGCACGTGTAAAG | 0.17
ATTGCCACGTGAGTTG | 0.16
TCAGTCACGTGGTAGG | 0.03
GATTGCACGTGGGGTC | -0.13
AATTCCACGTGGTTTA | 0.04
TTTGTCACGTGGTTTG | 0.15
GCAGTCACGTGTGAGG | 0.09
TGTGTCACGTGGAGAC | 0.17
CCTTTCACGTGAAGTT | 0.58
AGGGGCACGTGGGCCG | -0.34
CGGTTCACGTGTCTTG | 0.25
TATGCCACGTGTAAGT | 0.02
ATAATCACGTGTCGTT | 0.13
TTTGTCACGTGTTCAT | 0.1
GGCTGCACGTGTTGTA | 0.06
TGTAGCACGTGATTTA | 0.05
AAGAACACGTGTAGGT | -0.02
GGGGTCACGTGATGAC | 0.38
TTAATCACGTGTGTTT | 0.22
TTGTTCACGTGCGAGA | 0.32
GTAAACACGTGTAAGG | 0.1

Sequence | relative binding free energy [kcal/mol]
AAGGTCACGTGAATGT | 0.26
TTGAGCACGTGAGGTG | 0.17
CAGTGCACGTGTGTGC | 0
GGTGACACGTGTGCAA | 0.09
GAGTGCACGTGGTCAT | -0.03
AAGGTCACGTGTCGGT | 0.18
TGGCGCACGTGTACGT | 0
GCGATCACGTGTGTGT | 0.17
TATTTCACGTGGCGCG | 0.06
ATTTACACGTGATGTT | 0.26
TGATACACGTGTGATT | 0.15
GGGAACACGTGTGCGA | 0.11
GGTCTCACGTGCAGGG | 0.12
TGTGTCACGTGGGCCA | -0.14
ATATACACGTGGGAAT | -0.03
AGAACCACGTGGGGGG | -0.09
AAGGTCACGTGGGCAG | -0.02
ATTGGCACGTGTTTCG | -0.14
AGTCGCACGTGTCTTG | 0.12
CATGTCACGTGGATGT | 0.16
GGGGCCACGTGGCGCG | -0.13
CGGCCCACGTGGGTGG | -0.21
ATTTGCACGTGATCGG | 0.09

Sequence | relative binding free energy [kcal/mol]
ATAGGCACGTGTCTAG | -0.1
TAATTCACGTGGGTTA | 0.12
GGTTCCACGTGACGGG | 0.11
CCGTTCACGTGAGGTG | 0.3
GTGCACACGTGGGGTC | -0.13
GCATTCACGTGTAATT | 0.36
ATTAGCACGTGGTTTA | -0.11
TTTCGCACGTGTGCTG | -0.1
GGTTTCACGTGATGCA | 0.31
CGTAGCACGTGAGGTG | 0.12
GAGCTCACGTGGGGTT | 0.17
CGTAACACGTGAGTGT | 0.1
GTCTGCACGTGGTTTG | -0.04
TAGGTCACGTGAAACT | 0.35
CTATGCACGTGTTATG | -0.1
AGAAACACGTGGGATG | -0.12
GGTCGCACGTGGCATG | -0.18
GTAGGCACGTGTTGTA | -0.11
GAGTTCACGTGTAGTT | 0.3
AGGGCCACGTGATTTT | 0.26
GGGGGCACGTGCGCTA | -0.16
AAATTCACGTGGTCTT | 0.27
TTGGCCACGTGTACGG | 0.06

Sequence | relative binding free energy [kcal/mol]
GGAGTCACGTGCGGGT | 0.05
TGTCACACGTGGGGCA | -0.13
TGTTCCACGTGGTGGG | 0.06
ACGAACACGTGGGGTG | -0.23
ATTGTCACGTGGTGTC | -0.05
GAATTCACGTGGTGCG | 0.23
GCATACACGTGAGGGT | 0.24
GGATACACGTGATTTT | 0.23
GACGTCACGTGGTTTG | 0.14
TGCTACACGTGTTGTT | 0.12
AAGGGCACGTGTCTTG | -0.17
TGGAGCACGTGGACAG | -0.02
GGGAACACGTGGAAGT | 0.24
GTTATCACGTGGTATC | 0.02
TTATACACGTGAGCGT | 0.17
CGAGGCACGTGACGGT | -0.06
TGTGTCACGTGACCAG | 0.15
CATTGCACGTGGTGTA | -0.11
AGAGACACGTGATTGT | 0.08
AAAGGCACGTGGTATT | -0.1
TAGGGCACGTGGTGAC | -0.22
AATTTCACGTGTTTTA | 0.31
CGGAGCACGTGGAGAG | -0.11
